Reference: PubChem BioAssay AID445 (National Center for Advancing Translational Sciences (NCATS), 2006)
Out of some 110,000 compounds screened, about 40 (0.04%) were called active. The inconclusive results got no clear call from the source; some entries with a clear call stand among them for comparison. Calls come from the whole dose curve; as a rule, active = well fitted curve in the direction sought with a large enough effect in the signal ratio (not every such curve was filed as active); inconclusive = small, poorly fitted or top-dose-only effect, or a change in a side signal; inactive = flat fitted curve, though single readings scatter; the % refers to the signal ratio. Potencies beside an inconclusive call are fits to weak or partial responses and may not hold up.

assay: IkB Signaling; settings: ABC-DLBCL IkBa-CBG/CBR dual luciferase ratio (green luciferase fused to IkBa over red control in OCI-Ly3 lymphoma cells), 4 h; IkBa stabilization activation: at 57.1 µM (top of the series), scaled: untreated 0%, proteasome inhibitor 100% unless noted
In short: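 Luminescence ratio of IκBα-fused green versus native red beetle luciferase in OCI-Ly3 cells, 4 h post-doxycycline with compound; red signal alone, scaled from basal (0%) to zero light (-100%), flagged nonspecific or cytotoxic effects.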
Potency is the fitted concentration of half-maximal effect.

Q: Which “IkBa stabilization activation” value does the source give for Cc1ccc(NC(=O)Nc2ccc3nc(N4CCN(C)CC4)cc(C)c3c2)cc1F here?
A: Its value is inactive: -5.59%.

Q: With CCOc1cc(C2c3c(oc4cc(C)cc(C)c4c3=O)C(=O)N2CCO)ccc1O (stereo not drawn) as the molecule, how does the “IkBa stabilization activation” value read?
A: Its value is inactive: -0.718%.

Q: With N#C/C(=C\c1cccc(F)c1)c1nc(-c2cc3c(ccc4ccccc43)oc2=O)cs1 as the molecule, how does the IkBa stabilization activation read?
A: Its IkBa stabilization activation is inconclusive: 0.972% [signal inhibitor].

Q: With CN1c2cccc3cccc(c23)N(C)C1(C)C as the molecule, how does the “IkBa stabilization activation” value read?
A: The value was inactive: 0.853%.

Q: Which IkBa stabilization activation does the source give for COC(=O)c1sccc1S(=O)(=O)N1CCN(c2ccc(C)cc2C)CC1 here?
A: The IkBa stabilization activation was inconclusive: 2.32% [signal inhibitor].

Q: For COc1cccc(NC(=O)CSc2ncc3c(n2)-c2ccc(Cl)cc2N(C)S3(=O)=O)c1, which IkBa stabilization activation is on record?
A: Its IkBa stabilization activation is inconclusive: 12.1% [signal activator].

Q: For Cc1ccccc1OCC(=O)Nc1ccccc1N1CCOCC1, which “IkBa stabilization activation” value is on record?
A: Its value is inactive: -0.416%.

Q: With CC(C)(C)c1ccc(C(=O)NC2(C(F)(F)F)NC(=O)N(CCc3ccccc3)C2=O)cc1 (stereo not drawn) as the molecule, how does the IkBa stabilization activation read?
A: The IkBa stabilization activation was inconclusive: -5.65% [signal inhibitor].

Q: For CCc1ccc(NC(=O)c2cc(C(C)C)on2)cc1, which Potency is on record?
A: Its Potency is inconclusive: 25.1 µM [signal inhibitor, partial curve].

Q: With COc1ccc2nc(NC(=O)c3cccc(OCc4c(C)noc4C)c3)sc2c1 as the molecule, how does the Potency read?
A: The Potency was inconclusive: 25.1 µM [signal inhibitor, partial curve].

Q: For CC(=O)Nc1cccc(Nc2nc3ccccc3n3c(C)nnc23)c1, which IkBa stabilization activation is on record?
A: Its IkBa stabilization activation is inconclusive: -0.597% [signal inhibitor].

Q: Which IkBa stabilization activation does the source give for O=C(CN1CCCN(Cc2ccc(F)cc2)S1(=O)=O)Nc1ccc2c(c1)OCCO2 here?
A: Its IkBa stabilization activation is inconclusive: 0.845% [signal inhibitor].

Q: With CCCN(CCC)CCCNC(=O)Cn1ncc2c3ccccc3n(Cc3ccccc3F)c2c1=O as the molecule, how does the IkBa stabilization activation read?
A: The IkBa stabilization activation was inconclusive: 1.18% [signal inhibitor].

Q: For CCc1nn(CCCC(=O)NCc2ccc(C)cc2)c(=O)c2cc3occc3n12, which IkBa stabilization activation is on record?
A: The IkBa stabilization activation was inconclusive: 0.298% [signal inhibitor].

Q: Which Potency does the source give for CC(C)(C)c1ccc(Oc2nc3ccccn3c(=O)c2/C=C(\C#N)c2nc3ccccc3s2)cc1 here?
A: The Potency was inconclusive: 5.01 µM [signal inhibitor, single point].

Q: For COc1ccc2c(c1)CCc1sc(NC(=O)c3ccc(Br)cc3)nc1-2, which IkBa stabilization activation is on record?
A: The IkBa stabilization activation was inconclusive: 0.52% [signal inhibitor].

Q: For COc1cc(NC(=O)Cn2ccn(-c3cc(C)cc(C)c3)c(=O)c2=O)cc(OC)c1, which IkBa stabilization activation is on record?
A: Its IkBa stabilization activation is inconclusive: 3.27% [signal inhibitor].

Q: With CCSc1nnc(NC(=O)c2ccco2)s1 as the molecule, how does the Potency read?
A: Its Potency is inconclusive: 15.8 µM [signal inhibitor, partial curve].

Q: With Cc1ccc(NC(=O)C(=O)NCC(c2ccc3c(c2)OCO3)N2CCN(C)CC2)c(C)c1 (stereo not drawn) as the molecule, how does the IkBa stabilization activation read?
A: Its IkBa stabilization activation is inconclusive: -0.0844% [signal inhibitor].

Q: Which “IkBa stabilization activation” value does the source give for Cc1cc(NC(=O)c2ccc3c(c2)OCO3)no1 here?
A: The value was inactive: 1.32%.

Q: For CS(=O)(=O)c1cccc(-c2nnc(NC(=O)c3ccc4c(c3)OCCO4)o2)c1, which “IkBa stabilization activation” value is on record?
A: The value was inactive: 0.976%.

Q: Which “IkBa stabilization activation” value does the source give for Cc1nn(-c2ccccc2)c(Cl)c1C1C(C#N)=C(N)OC2=C1C(=O)CCC2 (stereo not drawn) here?
A: The value was inactive: 0.525%.

Q: Which IkBa stabilization activation does the source give for CN(C)c1ccc(-c2nc(-c3cccs3)c(-c3cccs3)[nH]2)cc1 here?
A: Its IkBa stabilization activation is inconclusive: 3.68% [signal inhibitor].

Q: With CCCn1c(SCC(O)c2ccccc2)nc2ccccc21 (stereo not drawn) as the molecule, how does the IkBa stabilization activation read?
A: The IkBa stabilization activation was inconclusive: 0.96% [signal inhibitor].

Q: Which IkBa stabilization activation does the source give for CCC(=O)n1nc(NCc2ccc(OC)c(OC)c2)nc1NCc1ccc(OC)c(OC)c1 here?
A: The IkBa stabilization activation was inconclusive: 3.84% [signal inhibitor].

Q: For Cc1ccc(-c2noc(-c3ccccc3NC(=O)C3CC(=O)N(c4ccc(C)cc4)C3)n2)cc1 (stereo not drawn), which IkBa stabilization activation is on record?
A: The IkBa stabilization activation was inconclusive: 4.24% [signal inhibitor].

Q: For COc1cc2nc(Nc3cccc(C)c3)nc(N)c2cc1OC, which IkBa stabilization activation is on record?
A: Its IkBa stabilization activation is inconclusive: 5.27% [signal inhibitor].

Q: With Cc1ccc(C(=O)NCC(c2ccco2)S(=O)(=O)c2cccs2)cc1C (stereo not drawn) as the molecule, how does the IkBa stabilization activation read?
A: Its IkBa stabilization activation is inconclusive: 0.828% [signal inhibitor].

Q: Which IkBa stabilization activation does the source give for CCCCN(Cc1cc2ccccc2[nH]c1=O)C(=O)c1cccc(Cl)c1 here?
A: Its IkBa stabilization activation is inconclusive: 1.53% [signal inhibitor].

Q: Which IkBa stabilization activation does the source give for O=C(Oc1ccc(F)cc1)c1nc(SCc2ccc(F)cc2)ncc1Cl here?
A: The IkBa stabilization activation was inconclusive: 0.688% [signal inhibitor].

Q: Which “IkBa stabilization activation” value does the source give for CCCC[P+](CCCC)(CCCC)Cc1ccc(NC(=O)[C@@H](Cc2ccc3ccccc3c2)NC(=NC2CCCCC2)NC2CCCCC2)cc1 here?
A: Its value is inactive: 0.891%.

Q: Which IkBa stabilization activation does the source give for CN(C)c1ccc2c(c1)OC(N)=C(C#N)C2c1cccc(F)c1 (stereo not drawn) here?
A: The IkBa stabilization activation was inconclusive: 12.5% [signal inhibitor].

Q: With Cc1cccc(C(c2sc3nc(-c4ccco4)nn3c2O)N2CCN(c3ccccc3F)CC2)c1 (stereo not drawn) as the molecule, how does the IkBa stabilization activation read?
A: Its IkBa stabilization activation is inconclusive: 9.01% [signal inhibitor].

Q: For O=C1C2C3C=CC(C3)C2C(=O)N1Cc1ccccc1 (stereo not drawn), which IkBa stabilization activation is on record?
A: The IkBa stabilization activation was inconclusive: -2.85% [signal inhibitor].

Q: With Cc1cccc(N2C(=O)c3cccc4c(N(C)CCO)ccc(c34)C2=O)c1 as the molecule, how does the “IkBa stabilization activation” value read?
A: Its value is inactive: -1.2%.

Q: For Cc1ccc(C)c(CN2C(=O)c3ccccc3S(=O)c3ccc(C(=O)N(C)Cc4ccccc4)cc32)c1 (stereo not drawn), which IkBa stabilization activation is on record?
A: Its IkBa stabilization activation is inconclusive: -1.01% [signal inhibitor].

Q: For Cc1ccc(-n2ncc(C(=O)N3CCC(c4ccccc4)C3)c2C2CCN(C(=O)OC(C)(C)C)CC2)cc1 (stereo not drawn), which IkBa stabilization activation is on record?
A: The IkBa stabilization activation was inconclusive: -4.97% [signal inhibitor].

Q: For CCCCOc1ccc(CNC(=O)c2ccc(NC(=O)N3CCSc4ncccc43)cc2)cc1, which IkBa stabilization activation is on record?
A: Its IkBa stabilization activation is inconclusive: -0.0161% [signal inhibitor].

Q: With CCCc1nn2c(C)c(-c3ccccc3)nc2s1 as the molecule, how does the “IkBa stabilization activation” value read?
A: The value was inactive: 12.9%.

Q: Which IkBa stabilization activation does the source give for Cc1cccc(N2CCN(C(=O)C3CCN(S(=O)(=O)c4ccc5c(c4)oc(=O)n5C)CC3)CC2)c1C here?
A: Its IkBa stabilization activation is inconclusive: 0.907% [signal inhibitor].

Q: With CCC(C)[C@@H](NC(=O)OC(C)(C)C)c1nnc(S(=O)(=O)Cc2cccc(C)c2)o1 (stereo partly drawn) as the molecule, how does the Potency read?
A: The Potency was inconclusive: 6.31 µM [rising, single point].

Q: With Cc1coc2cc3oc(=O)c(CC(=O)NCc4ccccc4)c(C)c3cc12 as the molecule, how does the IkBa stabilization activation read?
A: The IkBa stabilization activation was inconclusive: -0.699% [signal inhibitor].

Q: For CC(C)(C)c1ccc(S(=O)(=O)Nc2ccc(O)c(Sc3nc4ccccc4s3)c2)cc1, which IkBa stabilization activation is on record?
A: Its IkBa stabilization activation is inconclusive: -9.36% [signal inhibitor].
